Results from PubChem BioAssay AID588591 (National Center for Advancing Translational Sciences (NCATS), 2011).
Values joined by “and” are separate entries in the source; they are usually repeats but may differ in a detail not shown here. Identical values can stand only once. The campaign covered roughly 390,000 compounds. About 4,700 (1.2%) were called active. Inconclusive results, whose numbers are uncertain, are shown with a selection of clear calls. The call rests on the fitted dose curve; in most records, active means well fitted inhibition curve with a large enough effect; inconclusive means small, poorly fitted or top-dose-only effect, or another doubt; inactive means no such curve, though single readings can be large or run the other way. Potencies beside an inconclusive call are fits to weak or partial responses and may not hold up.

The molecules below were run against DNA polymerase eta (Homo sapiens) (UniProt Q9Y253) (assay: qHTS for Inhibitors of Polymerase Eta). Settings: recombinant Pol eta, fluorescent DNA replication assay; series mostly up to 114 µM.
UniProt Q9Y253, sequence (Q9Y253 whole entry, looked up): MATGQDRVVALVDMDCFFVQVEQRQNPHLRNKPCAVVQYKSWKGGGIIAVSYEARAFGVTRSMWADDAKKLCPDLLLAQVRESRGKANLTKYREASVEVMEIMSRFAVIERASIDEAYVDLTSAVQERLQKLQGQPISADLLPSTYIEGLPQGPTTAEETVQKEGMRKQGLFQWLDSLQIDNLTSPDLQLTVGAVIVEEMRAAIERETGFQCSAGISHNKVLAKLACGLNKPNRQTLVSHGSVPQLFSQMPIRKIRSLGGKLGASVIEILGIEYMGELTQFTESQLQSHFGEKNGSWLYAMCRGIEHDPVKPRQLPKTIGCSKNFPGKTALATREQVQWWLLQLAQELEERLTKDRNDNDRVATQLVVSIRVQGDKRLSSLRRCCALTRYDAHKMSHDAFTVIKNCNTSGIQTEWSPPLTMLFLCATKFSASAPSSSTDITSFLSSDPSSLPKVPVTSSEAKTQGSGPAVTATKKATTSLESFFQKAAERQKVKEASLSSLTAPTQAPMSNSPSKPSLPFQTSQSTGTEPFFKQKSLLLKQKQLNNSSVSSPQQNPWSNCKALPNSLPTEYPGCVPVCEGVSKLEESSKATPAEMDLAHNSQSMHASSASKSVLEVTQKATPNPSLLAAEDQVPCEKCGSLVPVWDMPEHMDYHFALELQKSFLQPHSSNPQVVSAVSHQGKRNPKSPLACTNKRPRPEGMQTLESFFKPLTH
How it was run: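 Pol eta at 10 nM preincubated with compounds 15 min at room temperature; reaction started with fluorescent substrate (50 nM final) and read kinetically at 0 and 10 min.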
Potency means the concentration at half of the fitted maximal effect; tags describe the fitted curve by direction and shape.

| Structure (SMILES) | Potency |
| --- | --- |
| CC1CCCC(C)N1/N=C/c1c[nH]c2ccc(Br)cc12 (stereo not drawn) | inconclusive: 22.4 µM [inhibitor, partial curve, poor fit] |
| COc1ccc(CCNC(=O)C(=O)NCC2OCCN2S(=O)(=O)c2ccc(Cl)cc2)cc1 (stereo not drawn) | inconclusive: 100 µM [inhibitor, partial curve, poor fit] |
| NC1C=CC=C(C(=O)O)C1 (stereo not drawn) | inconclusive: 0.251 µM [inhibitor, full curve] |
| CCC(CO)NC(=O)[C@@H]1C=C2c3cccc4[nH]cc(c34)C[C@H]2N(C)C1 (stereo partly drawn) | inconclusive: 7.08 µM [inhibitor, partial curve] |
| CCN1C(=O)CC(=O)N(CC)C1=S | inactive |
| CCc1ccc(N2NC(=O)/C(=C/C=C/c3ccco3)C2=O)cc1 | inconclusive: 17.8 µM [inhibitor, full curve, poor fit] |
| Cc1ccc(S(=O)(=O)Cc2ccc(C(=O)N3CCC4(CC3)OCCO4)o2)cc1 | active: 12.6 µM |
| CCCCC1(CCC)C(=O)NC(=S)NC1=O | inactive |
| C=CCN1C(=O)/C(=C/c2cccs2)C(=O)NC1=S | inconclusive: 14.1 µM [inhibitor, partial curve] |
| C[Se]C[C@@H](N)C(=O)O | inconclusive: 89.1 µM [inhibitor, single point] |
| CCOP1(=O)C=C(Sc2ccc([N+](=O)[O-])cc2[N+](=O)[O-])C(C)(C)O1 (stereo not drawn) | inconclusive: 12.6 µM [inhibitor, full curve, poor fit] |
| Cc1ccc(-c2nnc(Nc3ccc(OC(F)(F)Cl)cc3)c3ccccc23)cc1S(=O)(=O)NC(C)(C)CO | inconclusive: 1.58 µM [inhibitor, partial curve, poor fit] |
| CCOC(=O)c1c(-n2c(C)cc(C=C3C(=O)NC(=O)NC3=O)c2C)sc2c1CCCC2 | inconclusive: 17.8 µM [inhibitor, full curve, poor fit] |
| Cc1cccc(N2C(=O)NC(=O)/C(=C\c3cc(C)n(-c4sc5c(c4C#N)CCCC5)c3C)C2=O)c1C | active: 20 µM |
| COc1ccc(S(=O)(=O)Nc2ccccc2OC)cc1N=Nc1c(O)[nH]c(=S)[nH]c1=O | active: 22.4 µM |
| COc1ccc(-n2c(CNCCc3ccc(C)cc3)nc3ccccc3c2=O)cc1 | inconclusive: 3.98 µM [inhibitor, full curve, poor fit] |
| Cc1ccc(NS(=O)(=O)c2ccc(Cl)c(N=Nc3c(O)[nH]c(=O)[nH]c3=O)c2)cc1Cl | active: 22.4 µM |
| O=C1NC(=O)C2(Cc3ccccc3N3CCCC32)C(=O)N1c1ccc(Cl)cc1 (stereo not drawn) | inconclusive: 89.1 µM [inhibitor, single point] |
| O=C(O)CCn1cc(C=C2C(=O)NC(=S)NC2=O)c(-c2cccc(Cl)c2)n1 | inconclusive: 89.1 µM [inhibitor, single point] |
| COc1cc2c(ccc3c4cc(OC)c(OC)cc4c[n+](C)c23)cc1O | inconclusive: 4.47 µM [inhibitor, full curve, poor fit] |
| COc1ccc(NC(=O)CN2C(=O)C(C)N=C(c3ccccc3)c3ccccc32)cc1OC (stereo not drawn) | inactive |

| Structure (SMILES) | Potency |
| --- | --- |
| O=c1[nH]c(=O)n(C2CCCCC2)c(O)c1/C=C/C=Nc1ccccc1 | inconclusive: 44.7 µM [inhibitor, full curve, poor fit] |
| O=C1NC(=S)NC(=O)C12C(c1ccccc1)NC(=S)NC2c1ccccc1 (stereo not drawn) | active: 50.1 µM |
| Cc1cc(N2CCCCC2)ccc1C=C1C(=O)N(C)C(=S)N(C)C1=O | inconclusive: 14.1 µM [inhibitor, full curve, poor fit] |
| Cc1cc(OCc2cc(C(=O)O)oc2C)c2c3c(c(=O)oc2c1)CCCC3 | inconclusive: 89.1 µM [inhibitor, single point] |
| CCCCCCCSc1cc(OC)c(CCN(C)C)cc1OC | inconclusive: 79.4 µM [inhibitor, partial curve, poor fit] |
| CN1CC[C@@]2(C)c3cc(O)ccc3N(C)[C@@H]12 | inactive and inconclusive: 89.1 µM [inhibitor, single point] |
| O=C1NC(=O)N(Cc2cccs2)C(=O)/C1=C/c1ccc(N2CCOCC2)cc1 | inactive |
| C[C@]12CCC3C(CC[C@H]4C[C@@H](O)CC[C@]34C)C1C[C@@H](O)C2=O (stereo partly drawn) | inconclusive: 100 µM [inhibitor, partial curve, poor fit] |
| CCCCCCCCCCCCCC(=O)O[C@@H]1[C@@H](C)[C@@]2(O)[C@@H](C=C(CO)C[C@@]3(O)C(=O)C(C)=C[C@@H]23)C2C(C)(C)[C@@]21OC(C)=O (stereo partly drawn) | inconclusive: 44.7 µM [inhibitor, single point] |
| CNC(=O)Oc1cccc2c1OC(C)(C)O2 | inactive |
| O=C1NC(=O)N(Cc2ccco2)C(=O)/C1=C\c1cccn1CCOc1ccccc1 | active: 79.4 µM |
| Cc1cccc(C(=O)Nc2ccc(C(=O)OCc3cc(=O)n4nc(C5CC5)sc4n3)cc2)c1 | inconclusive: 50.1 µM [inhibitor, partial curve, poor fit] |
| COc1ccc(CNS(=O)(=O)c2cc3c(cc2C)N(C)CCO3)cc1 | inconclusive: 89.1 µM [inhibitor, partial curve, poor fit] |
| Cc1cc(/C=C2\C(=O)NC(=O)N(c3ccc(Br)cc3)C2=O)c(C)n1-c1cc(C(=O)O)cc(C(=O)O)c1 | active: 2.51 µM |
| NC(=O)C1CCN(/C=C2\C(=O)NC(=O)N(Cc3ccco3)C2=O)CC1 | active: 17.8 µM |
| ClC1=C(Cl)C(Cl)=C(Cl)C1=C/C=C/c1ccccc1 | inconclusive: 100 µM [inhibitor, partial curve, poor fit] |
| Cc1c2ccncc2c(C)c2c1[nH]c1ccccc12 | inconclusive: 25.1 µM [inhibitor, partial curve] and inconclusive: 89.1 µM [inhibitor, single point] |
| CC(C)CS(=O)(=O)C1=NN2C(=N)/C(=C\c3ccc(OC(=O)c4ccco4)cc3)C(=O)N=C2S1 | active: 20 µM |
| O=C1NC(=O)N(c2ccccc2)C(=O)/C1=C/c1ccc([N+](=O)[O-])s1 | active: 10 µM |
| O=C1/C(=C/c2ccc3c(c2)OCO3)SC(=S)N1CCC(=O)N(CCO)c1ccccc1 | inconclusive: 22.4 µM [inhibitor, full curve, poor fit] |
| O=C1NC(=O)N(c2ccccc2)C(=O)/C1=C/C=C/c1ccco1 | active: 12.6 µM |

| Structure (SMILES) | Potency |
| --- | --- |
| Nc1c2c(nc3sc4c(c13)CCCCC4)CCCC2 | inconclusive: 28.2 µM [inhibitor, partial curve, poor fit] |
| CC/C(=C\C=C\[C@@H]1C=C[C@@H]2CCC[C@H]2[C@@H]1C(=O)c1ccc[nH]1)[C@@H]1O[C@@H]([C@@H](C)C(=O)O)CC[C@@H]1C | active: 89.1 µM |
| Cc1cccc(N2C(=O)NC(=O)/C(=C\c3cnn(-c4ccccc4)c3)C2=O)c1 | active: 20 µM |
| C=CCN1C(=O)NC(=O)/C(=C/c2ccc(OC)c(COc3ccc(NC(C)=O)cc3)c2)C1=O | inconclusive: 7.94 µM [inhibitor, partial curve, poor fit] |
| N#Cc1c(Cl)nc(Cl)c2c1CCN(Cc1ccccc1)C2 | inconclusive: 28.2 µM [inhibitor, partial curve, poor fit] |
| CC(Cc1ccccc1)NCCC(c1ccccc1)c1ccccc1 (stereo not drawn) | inconclusive: 56.2 µM [inhibitor, partial curve, poor fit] |
| O=c1c2ccccc2nc(/C=C/c2ccc(O)c(O)c2)n1-c1ccccc1 | active: 17.8 µM |
| COC(=O)C1=C(c2ccc(-c3ccccc3)c(F)c2)C[C@@H]2CC[C@H]1N2C(=O)N1CCOCC1 | inconclusive: 89.1 µM [inhibitor, partial curve, poor fit] |
| O=C(O)c1cccc2c1NC(C(=O)O)C1CC(Sc3ccccc3[N+](=O)[O-])C(Cl)C21 (stereo not drawn) | active: 3.16 µM |
| CCOC(=O)c1c(C)n(Cc2ccco2)c2ccc(O)cc12 | inconclusive: 22.4 µM [inhibitor, single point] |
| O=C1NC(=O)N(c2ccccc2)C(=O)/C1=C\c1ccc([N+](=O)[O-])s1 | active: 10 µM |
| O=c1[nH]c(=O)n(-c2ccc(F)cc2)c(O)c1/C=C1\C=Nc2ccccc21 | active: 89.1 µM |
| Cc1noc(C)c1CSc1nc2cc(S(=O)(=O)N3CCOCC3)ccc2o1 | inconclusive: 28.2 µM [inhibitor, partial curve, poor fit] |
| CN(CC(=O)NC(=O)NCc1ccco1)CC(=O)Nc1ccccc1Cl | inconclusive: 79.4 µM [inhibitor, partial curve] |
| C=CCn1c(O)c(/C=C2/C=CC=N2)c(=O)[nH]c1=O | inconclusive: 17.8 µM [inhibitor, full curve, poor fit] |
| CCCCn1c(O)c(C(C)=NCCc2c[nH]c3ccccc23)c(=O)[nH]c1=O | inactive |
| CN1C(=O)/C(=C\c2ccc(Br)s2)C(=O)NC1=S | inconclusive: 50.1 µM [inhibitor, partial curve] |
| Cc1cc(C)cc(N2C(=O)NC(=O)/C(=C\C=C\c3ccco3)C2=O)c1 | active: 17.8 µM |
| COC(=O)C1=C(c2ccc(F)cc2OCc2ccccc2)C[C@@H]2CC[C@H]1N2C(=O)NC(C)C | inconclusive: 11.2 µM [inhibitor, partial curve, poor fit] |
| c1cc2c(cc1CCNC1CCCCCC1)OCO2 | inconclusive: 89.1 µM [inhibitor, partial curve, poor fit] |
| COc1ccc(-n2c(O)c(/C=C3\C=Nc4ccccc43)c(=O)[nH]c2=O)cc1 | inconclusive: 31.6 µM [inhibitor, partial curve, poor fit] |
